The results in this text go back to PubChem BioAssay AID1745853 (National Center for Advancing Translational Sciences (NCATS), 2022).

Holding throughout (assay): Primary Screen for Target Class Profiling of Small Molecule Inhibitors of Methyltransferases
The target in test [1] is Glycine N-methyltransferase (Homo sapiens) (UniProt Q14749). As to conditions: purified enzyme, MTase-Glo SAH luminescence; measured here: GNMT inhibition; at 40 µM; stronger effect = lower value. The procedure, abridged:
(§1)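 Each enzyme was reacted with SAM and its substrate, with compounds tested once at 40 uM; SAH formed was read by MTase-Glo luminescence.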

Test [2] deals with Guanidinoacetate N-methyltransferase (Homo sapiens) (UniProt Q14353). As to conditions: purified enzyme, MTase-Glo SAH luminescence; measured here: GAMT inhibition; at 40 µM; stronger effect = lower value. Put shortly:
as §1

In test [3] the target is Histamine N-methyltransferase (Homo sapiens) (UniProt P50135). The conditions noted are these: purified enzyme, MTase-Glo SAH luminescence; measured here: HNMT inhibition; at 40 µM; stronger effect = lower value. The procedure, abridged: as §1
For test [4], the target named is Nicotinamide N-methyltransferase (Homo sapiens) (UniProt P40261). As to conditions: purified enzyme, MTase-Glo SAH luminescence; measured here: NNMT inhibition; at 40 µM; stronger effect = lower value. The procedure, abridged: as §1
Test [5] has as its target Phenylethanolamine N-methyltransferase (Homo sapiens) (UniProt P11086). The conditions noted are these: purified enzyme, MTase-Glo SAH luminescence; measured here: PNMT inhibition; at 40 µM; stronger effect = lower value. The procedure, abridged:
as §1

The list shows a part of the results. Further columns of the screen follow, without active or inactive calls.
% is set by controls: 0 for no effect and ±100 for the full control effect.

In the case of `C=C1C(=O)OC2C1CCC(=C)C1CC(OC(C)=O)C(=C)C12` (stereo not given), the activity change, negative = inhibition is -16.7% in test [1]; -11.3% in test [2]; -5.14% in test [3]; -19.7% in test [4]; -17.1% in test [5].
With `Cc1ccccc1NC(=O)CSc1nnc2n(CC(C)C)c(=O)c3ccccc3n12`, the activity change, negative = inhibition in test [1] is -4.19%; in test [2], 0.743%; in test [3], -0.432%; in test [4], -2.37%; in test [5], 0.783%.
Turning to `C#CCN(C)CCCOc1ccc(Cl)cc1Cl`, the activity change, negative = inhibition in test [1] is 6.29%; in test [2], 13.1%; in test [3], 8.21%; in test [4] it was -5.25%; in test [5], 4.4%.
As for `COc1ccc(CCN2C(=O)c3cc4ccccc4n3CC2(C)C(=O)NC2CCCC2)cc1OC` (stereo not given), the activity change, negative = inhibition in test [1] is -2.13%; in test [2], 0%; in test [3], -3.76%; in test [4], -21.4%; in test [5] it was 1.49%.
Turning to `CN(Cc1cccn1C)C(=O)c1ccc(Cl)nc1`, the activity change, negative = inhibition in test [1] is -4.58%; in test [2] it was -7.51%; in test [3] it was -1.75%; in test [4] it was -5.88%; in test [5] it was -5.06%.
Regarding `C[C@@H]1CN(C[C@@H]2CN(C(=O)c3ccc(Cl)o3)C[C@@H]2CO)C[C@H](C)O1`, the activity change, negative = inhibition in test [1] was -2.31%; in test [2] it was 0.626%; in test [3], 0.258%; in test [4], -0.018%; in test [5] it was -2.99%.
On to `Cn1c(=O)cc(N2CCCC(N)C2)n(Cc2cc(F)ccc2C#N)c1=O` (stereo not given), for which the activity change, negative = inhibition in test [1] is 1.11%; in test [2] it was -10.3%; in test [3] it was -9.83%; in test [4], -17.8%; in test [5], -7.98%.
For the compound `CC(C)NCC(O)c1cc(O)cc(O)c1` (stereo not given), the activity change, negative = inhibition in test [1] is 0.642%; in test [2], 10.3%; in test [3], 10.8%; in test [4], -6.78%; in test [5] it was 0.884%.
On the same counts, the results for `Cc1cccc(-c2n[nH]n3c2nc(=O)c2ccc(C(=O)N4CCN(c5ccccn5)CC4)cc23)c1` are -14.7%, 2%, -8.23%, -6.05% and -4.76%.
Turning to `CCNC(=O)N(C1CC1)C1CCOC2(CCN(C(=O)COc3ccccc3)CC2)C1` (stereo not given), the activity change, negative = inhibition in test [1] is -3.69%; in test [2] it was -4.42%; in test [3], -1.08%; in test [4] it was -5.79%; in test [5], -3.41%.
`O=S(=O)(c1ccc(F)cc1)N1CCCC(CN2CCOCC2)CC1` (stereo not given): the activity change, negative = inhibition is -0.715% in test [1]; 0.397% in test [2]; -4.87% in test [3]; 0.341% in test [4]; -7.62% in test [5].
Take `O=C(/C=C/c1ccc(O)cc1)O[C@@H]1C[C@@](O)(C(=O)O)C[C@@H](O)[C@@H]1O`: the activity change, negative = inhibition in test [1] was 5.5%; in test [2], 2.36%; in test [3], -2.57%; in test [4] it was -7.82%; in test [5], 2.83%.
On to `C[C@@H]1O[C@@H](O[C@H]2[C@H](OC(=O)C34CCC(C)(C)CC3C3=CCC5C6(C)CC(O)C(O[C@@H]7O[C@H](CO)[C@@H](O)[C@H](O)[C@H]7O)C(C)(C(=O)O)C6CCC5(C)C3(CO)CC4)O[C@H](C)[C@H](O)[C@@H]2O)[C@H](O)[C@H](O)[C@H]1O[C@@H]1OC[C@@H](O)[C@H](O)[C@H]1O` (stereo not given in full), for which the activity change, negative = inhibition was -1.04% in test [1]; -2.71% in test [2]; 5.13% in test [3]; -15.3% in test [4]; 3.23% in test [5].
On the same counts, the results for `COc1ccc(-c2cc3n(n2)CC(C)(C(=O)NCc2ccccc2)N(Cc2ccc(Cl)cc2)C3=O)cc1` (stereo not given) are 2.09%, 2.2%, 6.18%, 2.32% and 0.907%.
Regarding `CC(=O)/C(C)=N/O`, the activity change, negative = inhibition in test [1] was 7.14%; in test [2] it was 8.64%; in test [3], 10.1%; in test [4] it was -5.44%; in test [5], 2.22%.
On the same counts, the results for `CC(=O)N1CCc2ccc(O)c(OC3OC(COC4OCC(O)(CO)C4O)C(O)C(O)C3O)c2C1Cc1ccc(O)cc1` (stereo not given) are 0%, 4.23%, 8.26%, -7.9% and -1.06%.
Consider `COc1ccc(N2C(=O)c3cc4occc4n3CC2(C)C(=O)NC2CCCC(C)C2C)cc1OC` (stereo not given), for which the activity change, negative = inhibition in test [1] came out at 5%; in test [2] it was 17.5%; in test [3] it was 6.05%; in test [4] it was 11.2%; in test [5] it was 1.05%.
As to `O=C(NCc1ccc2c(c1)OCO2)C1CCN(c2cn[nH]c(=O)c2)C1` (stereo not given), the activity change, negative = inhibition was -6.08% in test [1]; -12.1% in test [2]; -4.39% in test [3]; -16.9% in test [4]; -14.1% in test [5].
For the compound `Cc1ccsc1CCNC(=O)Cn1c(=O)oc2cc(S(=O)(=O)N3CCCC3)ccc21`, the activity change, negative = inhibition is 4.3% in test [1]; 0% in test [2]; 9.93% in test [3]; 9.69% in test [4]; -54.4% in test [5].
On to `COC(=O)Nc1cc(-c2ccncc2)nn1C`, for which the activity change, negative = inhibition in test [1] was -1.51%; in test [2], 0.847%; in test [3], 0.712%; in test [4] it was -5.77%; in test [5], 15.2%.
Consider `Cc1ccc(N(C)C(=O)Cn2c(=O)oc3cc(S(=O)(=O)N4CCCCC4)ccc32)cc1`, for which the activity change, negative = inhibition in test [1] is -0.006%; in test [2] it was 0%; in test [3] it was 3%; in test [4], 8.68%; in test [5], -2.64%.
As for `Cc1ccc(Cn2c(=O)c3ccccc3n3c(CCC(=O)N4CCN(c5ccc(F)cc5)CC4)nnc23)cc1`, the activity change, negative = inhibition was -9.5% in test [1]; 1.32% in test [2]; -8.75% in test [3]; -8.89% in test [4]; -11.9% in test [5].
In the case of `COc1cccc(CN2C(=O)c3cc4sccc4n3CC2(C)C(=O)NC2CCC(C)CC2)c1` (stereo not given), the activity change, negative = inhibition was 0.985% in test [1]; 4.74% in test [2]; 3.52% in test [3]; -15% in test [4]; -3.32% in test [5].
Take `CCc1ccccc1N1C(=O)c2c(C(=O)OC)ncn2CC1(C)C(=O)NCCCOC(C)C` (stereo not given): the activity change, negative = inhibition in test [1] turned out to be 6.42%; in test [2] it was 4%; in test [3] it was 15.4%; in test [4], 10.4%; in test [5], 12.3%.
With `COc1ccc(C(=O)Cn2nc3n(C)c(=O)c4ccc(C(=O)NC5CCCCC5)cc4n3c2=O)cc1`, the activity change, negative = inhibition in test [1] was 2.89%; in test [2], 0%; in test [3], -2.34%; in test [4] it was 4.34%; in test [5], 2.57%.
With `O=c1cc(-c2ccccc2)c2ccc(OCc3ccccc3F)cc2o1`, the activity change, negative = inhibition was -2.03% in test [1]; 5.23% in test [2]; 0.306% in test [3]; 3.03% in test [4]; -10.1% in test [5].
For `CCOC(=O)c1ccc(N2C(=O)CSc3c(c4ccccc4n3C)C2C(=O)NCCCOC(C)C)cc1` (stereo not given), the activity change, negative = inhibition in test [1] is -0.968%; in test [2] it was -4.81%; in test [3], -0.519%; in test [4] it was -12.6%; in test [5], -5.83%.
`CC(C)Oc1ccc(CN2C(=O)c3cc4ccccc4n3CC2(C)C(=O)NC2CCCC2)cc1` (stereo not given): the activity change, negative = inhibition in test [1] was -0.845%; in test [2] it was 1.26%; in test [3], -1.28%; in test [4] it was -4.88%; in test [5], -1.46%.
Take `COc1ccc(CNC(=O)C[C@@H]2O[C@H](CNC(=O)NC(C)C)[C@@H](O)[C@H]2O)cc1`: the activity change, negative = inhibition in test [1] was 0.06%; in test [2], -0.15%; in test [3], -0.154%; in test [4], -0.751%; in test [5] it was -4.42%.
On to `COCC(=O)N1CCN2C(=O)N(C)C[C@H]2C1`, for which the activity change, negative = inhibition was -2.9% in test [1]; -4.89% in test [2]; 0.45% in test [3]; -8.07% in test [4]; -5.11% in test [5].
